# Measured values taken from PubChem BioAssay AID2546 (National Center for Advancing Translational Sciences (NCATS), 2010).
# The whole screen tested about 310,000 compounds, of which about 11,000 (3.5%) were called active. This list was built around the results that the source calls inconclusive (neither active nor inactive); the mix of calls is not that of the screen. The call rests on the fitted dose curve; in most records, active means well fitted inhibition curve with a large enough effect; inconclusive means small, poorly fitted or top-dose-only effect, or effect the other way; inactive means flat fitted curve, though single readings scatter. No potency is given beside an inconclusive call; the fits are too rough.
# Experiment: VP16 counterscreen qHTS for inhibitors of ROR gamma transcriptional activity;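 further: Gal4-VP16 expression switched on by copper sulfate through the metallothionein promoter; nearly all actives have a fitted effect of over 50% in size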
# Conditions: Drosophila S2 Gal4-VP16 UAS-luciferase, luminescence, 20 h; activity, negative = inhibition: at 53.6 µM (top of the series)
# On the % scale 0 is the no-effect control and ±100 the full control effect; potency means the concentration at half of the fitted maximal effect; tags describe the fitted curve by direction and shape.
SMILES,Potency,"activity, negative = inhibition"
Cc1ccc(NC(=S)NCc2ccc(Cl)cc2)c(C)c1,active: 4.47 µM,–
COc1ccc(C)cc1Nc1c2c(nc3ccccc13)CCC2,"inconclusive [inhibitor, single point]",–
S=c1[nH]nc(COc2ccc3ccccc3c2)o1,active: 3.98 µM,–
COc1cc(OC)cc(C(=O)NC(c2ccccc2)c2ccccc2)c1,"inconclusive [inhibitor, single point]",–
Cc1cc(C(=O)COC(=O)c2ccc(N)c([N+](=O)[O-])c2)c(C)n1-c1ccc2c(c1)OCO2,"inconclusive [inhibitor, single point]",–
Cc1ccccc1NC(=S)NC(C)CCc1ccccc1 (stereo not drawn),active: 3.55 µM,–
CCn1c(=O)c(C(=O)NCc2ccccc2Cl)c(O)c2ccccc21,active: 20 µM,–
CCc1nnc(N/N=C/c2ccc(O)c(OC)c2)n1N,active: 12.6 µM,–
Cc1c(C(=O)NCCCN2CCOCC2)oc2c1C1(CCC2)SCCS1,–,inactive: 1.94%
COCCNC(=O)/C(C#N)=C/c1cccs1,"inconclusive [activator, single point]",–
CCOc1ccc2[nH]c(=O)c(CN(CCO)C(=O)c3ccc(Br)cc3)cc2c1,"inconclusive [inhibitor, single point]",–
COCCSc1ccccc1C(=O)N1CCN(Cc2ccccc2)CC1,–,inactive: -12.8%
O=C(c1cccc(S(=O)(=O)N2CCOCC2)c1)N1CCN(Cc2ccc3c(c2)OCO3)CC1,–,inactive: 5.16%
O=C(NCCCN1CCOCC1)c1ccc2nc(Cc3ccccc3F)oc2c1,–,inactive: -2.6%
Clc1cc(Cl)c(OCc2nc(-c3ccccn3)no2)cc1Cl,"inconclusive [inhibitor, single point]",–
CCOC(=O)N=Nc1c(O)n(CC(=O)OC)c2ccccc12,–,inactive: 4.34%
COc1cccc2cc(-c3nnc(-c4ccccc4)o3)c(=O)oc12,"inconclusive [inhibitor, full curve, poor fit]",–
O=C(CCCCCNc1nc(=S)[nH]c2ccccc12)N1CCN(c2ccccn2)CC1,"inconclusive [inhibitor, single point]",–
COC(=O)c1ccc(C(NC(=O)OCc2ccccc2)/C(F)=C/[C@@H](C)C(=O)NC2CCCCC2)cc1 (stereo partly drawn),"inconclusive [inhibitor, single point]",–
Cc1ccc(C(=O)N/N=C/c2ccc(-c3ccc(Br)cc3[N+](=O)[O-])o2)o1,"inconclusive [inhibitor, single point]",–
NC(N)=NS(=O)(=O)c1ccc(NC(=S)NC(=O)/C=C/c2ccccc2)cc1,–,inactive: -6.74%
COc1ccc(/C=C2/CCc3ccccc3C2=O)cc1CN1CCOCC1,–,inactive: -13.6%
Cc1ccc(NC(=O)CCCCCN2C(=O)c3ccccc3C2=O)nc1,"inconclusive [activator, single point]",–
O=c1c(Cl)c(Cl)cnn1Cc1nnc(-c2ccccc2Br)o1,"inconclusive [inhibitor, single point]",–

SMILES,Potency,"activity, negative = inhibition"
Cc1csc(C(=O)NN)c1N(C)C,"inconclusive [inhibitor, full curve]",–
Cc1ccc(-c2cc(-c3ccccc3)nc(N(C)N)n2)cc1,"inconclusive [inhibitor, single point]",–
C=CCn1c(SCc2csc(-c3ccc(C)cc3)n2)nnc1-c1ccccc1OC,"inconclusive [inhibitor, single point]",–
Cc1n[nH]c(C)c1CCCOc1ccccc1,"inconclusive [inhibitor, single point]",–
COc1ccc(S(=O)(=O)N(CC(=O)NC2CCCCC2)c2ccc(F)cc2)cc1,"inconclusive [inhibitor, single point]",–
COc1ccc(/C=N/NC(=O)c2ccc(COc3cccc4cccnc34)cc2)cc1OC,–,inactive: -5.95%
C/C(=N\NC(=O)c1cc(C(C)C)[nH]n1)c1ccco1,"inconclusive [inhibitor, single point]",–
O=[N+]([O-])c1ccc(Cl)c(/C=N/N2CCN(Cc3ccccc3Cl)CC2)c1,–,inactive: -5.39%
CCN1CNC(=S)N(C(C)c2ccccc2)C1 (stereo not drawn),active: 12.6 µM,–
C/C(=N\NC(=S)Nc1ccc(F)cc1)C1CC1,"inconclusive [inhibitor, single point]",–
O=c1c(C/C=C/c2ccccc2)c(O)ccn1CCc1c[nH]c2ccccc12,–,inactive: -1.42%
COC(=O)c1ccc(NC(=S)NC2CC2)cc1,–,inactive: 27.3%
O=C(c1ccncc1)c1ccc(NS(=O)(=O)c2ccc(Br)s2)cc1,"inconclusive [inhibitor, single point]",–
COc1ccccc1C(=O)Nc1ccc2c(c1)nc1n2CCSC1,"inconclusive [inhibitor, single point]",–
O=C(NC(Nc1nc2ccc([N+](=O)[O-])cc2s1)(C(F)(F)F)C(F)(F)F)c1cccnc1,active: 6.31 µM,–
CC1=CC(=NOC(=O)/C=C/c2ccccc2)C=C(C)C1=O,"inconclusive [inhibitor, single point]",–
CCC(Cc1ccccc1)NS(=O)(=O)c1ccc2c(c1)NC(=O)C(C)S2 (stereo not drawn),"inconclusive [inhibitor, single point]",–
COc1ccc(Cc2nnc(SCC(=O)Nc3ccc(N4CCOCC4)cc3)n2C)cc1,"inconclusive [inhibitor, single point]",–
O=C(NC(=S)N1CCN(Cc2ccc3c(c2)OCO3)CC1)c1cccc(Br)c1,active: 0.631 µM,–
CN(CC(=O)NC(=O)NCc1ccco1)Cc1nc2ccccc2c(=O)[nH]1,active: 3.55 µM,–
O=C(NCCCN1CCOCC1)c1cc(Cl)ccc1OCc1ccccc1,–,inactive: -0.0321%
CCc1ccc2c(c1)C1(NN=C(c3ccccc3)S1)C(=O)N2 (stereo not drawn),active: 6.31 µM,–
COc1ccc(C2OCC3(COC(C)=O)C(C)C=C(C)C2C3C)cc1 (stereo not drawn),"inconclusive [inhibitor, single point]",–
CC(/C=C1\NC(=S)NC1=O)=C\c1ccccc1,"inconclusive [inhibitor, single point]",–
